Reference: the BET-seq Pho4 binding data (Le et al. 2018)
The list shows a part of the results. These are noisy estimates, calculated here from bound and input reads.

biological target: T1, Pho4 (S. cerevisiae) (UniProt P07270); assay: relative binding free energy (BET-seq); higher = weaker binding; conditions: reference: library average
T1 sequence: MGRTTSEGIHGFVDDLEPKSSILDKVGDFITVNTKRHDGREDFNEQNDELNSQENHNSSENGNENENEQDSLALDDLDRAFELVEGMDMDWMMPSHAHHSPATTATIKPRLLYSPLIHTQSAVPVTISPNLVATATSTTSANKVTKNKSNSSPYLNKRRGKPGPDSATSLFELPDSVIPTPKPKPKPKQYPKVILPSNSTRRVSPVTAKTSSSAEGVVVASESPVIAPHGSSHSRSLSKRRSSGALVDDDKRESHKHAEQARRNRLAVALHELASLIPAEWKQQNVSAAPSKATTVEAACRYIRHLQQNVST

Relative binding free energy, -0.19 kcal/mol:
TTTCGCACGTGTGCGT, ATTGACACGTGGGTCT, TAGGCCACGTGTTGTT, TGAGCCACGTGGGGGA

Relative binding free energy, 0.35 kcal/mol:
ATATTCACGTGACGTG, TATAACACGTGAAGGG

Relative binding free energy, -0.21 kcal/mol:
TCACGCACGTGGTGGT, TAGTGCACGTGGGGCC, GTGAGCACGTGGGGAG

Relative binding free energy, 0.38 kcal/mol:
TTCGTCACGTGAAGGT

Relative binding free energy, 0.34 kcal/mol:
CTTCTCACGTGTTTAT, TACTTCACGTGGATTT

Relative binding free energy, -0.22 kcal/mol:
CGAAGCACGTGGGGGT, TTGCGCACGTGGGTTG, TGCCGCACGTGGGGGG

Relative binding free energy, 0.14 kcal/mol:
ATGGGCACGTGAAGCT, AGTTACACGTGCAGGT, CTCGTCACGTGTGGAG

Relative binding free energy, 0.18 kcal/mol:
ATAAACACGTGAGTTT, GTTTACACGTGGTGTG, AGTTTCACGTGTAGGT, TGTTCCACGTGATGGG, CCGTTCACGTGTAGGG

Relative binding free energy, -0.01 kcal/mol:
GTGAACACGTGTTAGT, TGCTGCACGTGCGGTT, GTAGGCACGTGGATTA, GTTGGCACGTGTAGCG

Relative binding free energy, 0 kcal/mol:
ACTGTCACGTGGCGGT, TTCTTCACGTGTATTA, TTATGCACGTGTGCGA, ATTAACACGTGTAAGT, TGCGACACGTGTTGTA

Relative binding free energy, 0.12 kcal/mol:
GGGTCCACGTGTGAAG, CATGTCACGTGTTGTG, ATCTTCACGTGGTTTA, TTTTACACGTGGTCGG, TATATCACGTGGTTCA

Relative binding free energy, 0.19 kcal/mol:
GTCGTCACGTGTTTGA, TGGGTCACGTGGAGGC, GTATCCACGTGAGGGG, TCCTTCACGTGGGTTA, TTTTACACGTGTAACG

Relative binding free energy, -0.32 kcal/mol:
GGTCCCACGTGGGGTG

Relative binding free energy, 0.31 kcal/mol:
GTCTTCACGTGTTCGT, TTGTTCACGTGCACGT

Relative binding free energy, -0.15 kcal/mol:
TGTCGCACGTGGTTAT, CTACGCACGTGTGGGT

Relative binding free energy, 0.17 kcal/mol:
ATGGTCACGTGATGTC, TATGGCACGTGAGGGA, GGATTCACGTGTACTT

Relative binding free energy, 0.24 kcal/mol:
TGGGACACGTGAAGCG, CTGCTCACGTGGTTTG, TGAATCACGTGGTGGT

Relative binding free energy, -0.2 kcal/mol:
TCGGGCACGTGGGGGC, GTACGCACGTGTGTGT, GATCGCACGTGGGGGT

Relative binding free energy, 0.25 kcal/mol:
GGTATCACGTGGGACA, TGTTTCACGTGGGATA, ATTTTCACGTGTTATA, ATTTTCACGTGCATGT

Relative binding free energy, -0.23 kcal/mol:
TACGGCACGTGGGGGG

Relative binding free energy, -0.1 kcal/mol:
TGATACACGTGGGCGA, GGATGCACGTGCGTTT, AGATACACGTGGGGGG, GGTCGCACGTGGCTGG, AGTGGCACGTGTTCAG, TTAAGCACGTGCGGGT

Relative binding free energy, 0.28 kcal/mol:
CTTTTCACGTGTGGGA, TGGCTCACGTGTTTTG, CAATTCACGTGTGAGT

Relative binding free energy, -0.06 kcal/mol:
TGAAGCACGTGGAGCG, TCGAGCACGTGGGCTT, TATTGCACGTGGGGAC, ATTAGCACGTGGTGGT, TTAACCACGTGGTTTA, TATAACACGTGTTTTT

Relative binding free energy, 0.37 kcal/mol:
GGATTCACGTGGGAGC

Relative binding free energy, -0.09 kcal/mol:
TGCAACACGTGGTGTT, GGAGCCACGTGGTGTT, CATGGCACGTGTTTGT, TTACGCACGTGTTAAT

Relative binding free energy, 0.06 kcal/mol:
TGGCACACGTGGAGGT, TGGAGCACGTGATGGG, TCAGCCACGTGGTAGT, GGGCGCACGTGATTAG, GGGTACACGTGCTTGT

Relative binding free energy, -0.04 kcal/mol:
GCTGGCACGTGCAGTG, CCGGCCACGTGGGTTG, TTAGGCACGTGCTAAG

Relative binding free energy, 0.15 kcal/mol:
AGGTGCACGTGATAAA, TGCATCACGTGTGTAG

Relative binding free energy, 0.2 kcal/mol:
AGTTTCACGTGTCAAG, AAATTCACGTGGGGAT, AGGCTCACGTGTTGAG, GAATACACGTGGATGT, AAGGTCACGTGAGTTT

Relative binding free energy, 0.29 kcal/mol:
AACAGCACGTGAAGGG, TTCTGCACGTGAGTTG, TATTTCACGTGGTATG, GAAGTCACGTGTGAGG

Relative binding free energy, 0.04 kcal/mol:
TGTTACACGTGGGCTA, GTTGACACGTGGAGGG, GCTGTCACGTGCTGGT, TGATCCACGTGTTTTG, GAAAGCACGTGGGTTC, CTATGCACGTGAAGGG, AGAGACACGTGTGGGA, AATTGCACGTGTCTTA, CGTCACACGTGGGGGC, GATAACACGTGGTATT

Relative binding free energy, 0.3 kcal/mol:
GGATTCACGTGTAGAG

Relative binding free energy, -0.26 kcal/mol:
CGGGGCACGTGCTTTG

Relative binding free energy, 0.11 kcal/mol:
AGAATCACGTGGTGAG, TTTGGCACGTGAGGAA

Relative binding free energy, 0.09 kcal/mol:
ACTGGCACGTGAATGT, AGTGACACGTGTTGAA, GGCGTCACGTGGTATG, AGGTACACGTGGTTTG

Relative binding free energy, -0.08 kcal/mol:
AGAGACACGTGCGGTG, ATGGGCACGTGCAGAG, TAGGTCACGTGGGTCG, GGGAACACGTGGTTGT, AGATGCACGTGGTGGC, ATGGACACGTGGGGGG

Relative binding free energy, 0.01 kcal/mol:
TTGTACACGTGGATTA, GGTAGCACGTGTCGTT, GGGTACACGTGGCGTC

Relative binding free energy, -0.02 kcal/mol:
TTTAACACGTGATTTA, TGAGTCACGTGGCGAG, GTTGGCACGTGGTGGT, TGAGACACGTGGTGGG, CGTGGCACGTGTTGTT, TGCGACACGTGTATGT, CTTCGCACGTGATGGG, TTAGGCACGTGTTTTT, ATATCCACGTGGGAGT

Relative binding free energy, 0.26 kcal/mol:
GTAATCACGTGAAAGG, TATATCACGTGATGCG, GTGTTCACGTGTACGG

Relative binding free energy, 0.22 kcal/mol:
CATTTCACGTGGTGAG, GGACTCACGTGTGGTG

Relative binding free energy, -0.05 kcal/mol:
AGGGACACGTGGTCGG, AGTAGCACGTGTTATT

Relative binding free energy, 0.16 kcal/mol:
GATTGCACGTGAGGGC, TGATGCACGTGAATAG, TTTAACACGTGATACT, AGTTTCACGTGCAGGA

Relative binding free energy, 0.23 kcal/mol:
TAGAACACGTGAGGTG, TTTGACACGTGAAATA, TCTGCCACGTGTAAGT

Relative binding free energy, -0.11 kcal/mol:
TCGGGCACGTGGTGAT, CTCGGCACGTGCGGGG, AAGAGCACGTGGTGAG, TTATACACGTGGGTGC, TGGCGCACGTGCGGAG, TATAACACGTGGTGGA

Relative binding free energy, 0.21 kcal/mol:
ATGGTCACGTGACGGG, CGTTTCACGTGATATG, AGTTACACGTGAATTG, TGTGTCACGTGTCGGA, TGCAGCACGTGAGGAG, GTTGTCACGTGGTGAT

Relative binding free energy, 0.4 kcal/mol:
AGTCTCACGTGAGTAG

Relative binding free energy, 0.1 kcal/mol:
ACGTTCACGTGCTTGG, GGAGTCACGTGTTACG, TTTTGCACGTGTGACG, TATGGCACGTGAGGCG, GGGTCCACGTGTGTCG

Relative binding free energy, -0.12 kcal/mol:
ATGTGCACGTGTTAGT

Relative binding free energy, 0.05 kcal/mol:
TTGGTCACGTGGTTCT, GGTCACACGTGGAGTA, GTGTGCACGTGTGCTT, TTCGTCACGTGTCGGG

Relative binding free energy, -0.07 kcal/mol:
TCATGCACGTGTGCTG, TATAGCACGTGCGATG, TAATGCACGTGGTTGC, GGGGACACGTGGGGGT

Relative binding free energy, -0.25 kcal/mol:
CGGTGCACGTGGGTAT, ATAGGCACGTGGGGTA

Relative binding free energy, 0.02 kcal/mol:
CGGGACACGTGGTTAA, TGCGTCACGTGCTCGG, TGGTGCACGTGTGTCA, CTTTGCACGTGCGTTT, AAAGTCACGTGGCAGG

Relative binding free energy, -0.3 kcal/mol:
AGGGGCACGTGGCTTG

Relative binding free energy, -0.18 kcal/mol:
GTGGGCACGTGGTGCT

Relative binding free energy, -0.17 kcal/mol:
ATTGACACGTGGGGTA, CAAGACACGTGGGGGG

Relative binding free energy, 0.07 kcal/mol:
AAAGTCACGTGGGTTT, TATCTCACGTGCTGGG, GGGGACACGTGTAGGC

Relative binding free energy, 0.47 kcal/mol:
GTTCTCACGTGAGGGC

Relative binding free energy, 0.08 kcal/mol:
GGGTACACGTGGGTAG, TTCGTCACGTGGTTGC

Relative binding free energy, -0.03 kcal/mol:
ATTTACACGTGGGAAT, TGTGACACGTGGGAAC, AGATACACGTGTGTGG, GTAGGCACGTGTGCTT, GTAGGCACGTGTTCAG, TGAGACACGTGGTATT, GGAGGCACGTGGATGG

Relative binding free energy, -0.13 kcal/mol:
AGTCGCACGTGGAGGG, TTTCCCACGTGTTTGG, TGCCACACGTGGTGTG

Relative binding free energy, -0.14 kcal/mol:
GTAAGCACGTGCCGGG, GTATACACGTGCGTGT, TAGGGCACGTGGACTG, AAAGGCACGTGTCGTT

Relative binding free energy, 0.13 kcal/mol:
ATTTGCACGTGTAAAT, TGGTGCACGTGACGGG, AGTGTCACGTGGAGAT, TGTGTCACGTGTTGCT, AGATGCACGTGAGGCT

Relative binding free energy, -0.16 kcal/mol:
TAGGGCACGTGCCTGT, CGTAGCACGTGCGTGT, AATAACACGTGGGCGT

Relative binding free energy, 0.03 kcal/mol:
AAGATCACGTGGTGTG, TTCAACACGTGGATGT, GCTTGCACGTGTGTGT, CGTATCACGTGGGATG, GGCTGCACGTGTGGTT, TGTAACACGTGACGGT, AGTTACACGTGTTAAT, AGGTACACGTGCTGAG

Relative binding free energy, 0.33 kcal/mol:
TGTAACACGTGAATGG, GTGATCACGTGAAGGT, GTGGTCACGTGAGGAG, TGGTTCACGTGTGATG, GGTAACACGTGAGAGT

Relative binding free energy, 0.45 kcal/mol:
GGGTTCACGTGAGTTA
